Laboratory results taken from PubChem BioAssay AID463173 (ICCB-Longwood Screening Facility, Harvard Medical School, 2010).
About 4,300 (8.3%) of roughly 52,000 compounds were called active. Rule as the data show it: active = survival mostly below about 52% (no sharp cut-off); inactive = mostly above about 56%. The list shows a part of the results.

Test system: DeltatarO mutant
Assay: S. aureus survival, RN4220 and DeltatarO strains – OD600, teichoic acid synthesis inhibitors, primary screen (AID 463173)
Details: S. aureus RN4220 wild type/DeltatarO growth, OD600, 18 h, stronger effect = lower value, screened at 18.75 µg/mL (by protocol)

Structure (SMILES) | survival
COc1cccc(NC(=O)CCc2nc(-c3ccc(C(C)(C)C)cc3)no2)c1 | inactive: 85%
CCCCn1c(=O)c2oc3ccccc3c2n(Cc2ccc(OC)cc2)c1=O | inactive: 104%
Cc1cc(C)cc(NC(=O)c2cn3c4c(ccc(Cl)c4c2=O)OC(C)C3)c1 (stereo not drawn) | inactive: 91%
CCOC(=O)CCSc1nc(C)cc(C(F)(F)F)c1C#N | inactive: 88%
COc1ccccc1CNC(=O)c1ccc(-c2nc(CS(=O)c3ccc(C)cc3)c(C)o2)cc1 (stereo not drawn) | inactive: 119%
COc1ccc(S(=O)(=O)Nc2ccc3c(c2)sc(=O)n3C)cc1Cl | inactive: 122%
Cc1cccc2cc(CN(Cc3ccco3)C(=O)c3ccccc3)c(=O)[nH]c12 | inactive: 95%
O=C(c1ccc([N+](=O)[O-])cc1)N(Cc1ccco1)c1ccccn1 | inactive: 56%
CC(=O)OCc1cnc(C)c2oc(=O)c(C(=O)Nc3cc(F)ccc3C)cc12 | inactive: 171%
CCOc1ccccc1NC(=O)C1CCCN(c2ncnc3onc(-c4ccc(F)cc4)c23)C1 (stereo not drawn) | inactive: 85%
CC(C)C(=O)Nc1nnc(S(=O)(=O)N(C)Cc2ccc(F)cc2)s1 | inactive: 94%
COc1ccc(NC(=O)C2CCN(S(=O)(=O)c3cn(C)cn3)CC2)cc1Cl | inactive: 69%
O=C(NC1=NCCS1)c1ccccc1 | inactive: 101%
O=S1(=O)CCC(NCc2ccccc2)C1 (stereo not drawn) | inactive: 89%
NC(=O)CN1C(=O)C2(SCC(=O)N2c2cccc(F)c2)c2ccccc21 (stereo not drawn) | inactive: 78%
Cc1ccc(NC(=O)CSc2nnc(COc3ccc(Cl)cc3)o2)cc1 | inactive: 49%
COc1ccc(C2C(C(=O)Nc3ccc(C)cc3C)=C(C)Nc3nc(SC)nn32)cc1OC (stereo not drawn) | inactive: 108%
COC(=O)c1cc2c(ccn2-c2ccc(F)cc2)n1Cc1ccccc1 | inactive: 98%
Cc1ccccc1-c1nc(SCC(=O)NCc2ccc(F)cc2)c2c(=O)n(C)c(=O)n(C)c2n1 | inactive: 94%
O=C(Oc1ccccc1)C1C2CCCCC21 (stereo not drawn) | inactive: 104%

Structure (SMILES) | survival
O=C(CSc1oc(-c2ccccc2)nc1S(=O)(=O)c1ccc(Br)cc1)c1ccccc1 | inactive: 58%
COc1ccc(C)cc1NC(=O)COc1cc(=O)n(C)c2ccccc12 | inactive: 90%
CCc1ccc(NC(=O)CN(C)S(=O)(=O)c2ccc3c(c2)c(=O)n(C)c(=O)n3C)cc1 | inactive: 133%
COc1ccc(NC(=O)c2ccco2)cc1NC(=O)COc1cccc(C)c1C | inactive: 55%
Cc1ccc(NC(=O)c2nnn(Cc3ccccc3)c2N)cc1C | inactive: 73%
CCOC(=O)c1cc2c(=O)n3ccccc3nc2n(Cc2ccco2)c1=NC(=O)c1ccc(Br)cc1 | inactive: 55%
CCOC(=O)/C(C#N)=C/c1ccc(-c2ccc(Cl)c(C(=O)OC)c2)o1 | inactive: 92%
Cc1cc(-c2ccc(C)c(S(=O)(=O)Nc3cccc(C)n3)c2)on1 | inactive: 75%
CC(=O)Nc1ccc(NC(=O)c2cc(=O)c3ccccc3o2)cc1 | inactive: 59%
CCc1ccc(-n2nnc(-c3nsc(NC(=O)c4ccccc4Cl)n3)c2C)cc1 | active: 15%
CCn1c(CNc2nc(-c3ccccc3)cs2)nnc1SCC(=O)c1ccc(OC)cc1 | inactive: 87%
O=C(O)C(CO)NS(=O)(=O)c1ccc(F)cc1 (stereo not drawn) | inactive: 65%
Cc1ccc2c(c1)N(C(=O)N1CCC(C(=O)NCc3cccc(Br)c3)CC1)CCO2 | inactive: 74%
COc1ccc(-c2nc(-c3cc4cc(Br)ccc4oc3=O)cs2)cc1 | inactive: 78%
COc1ccccc1N1CCN(c2nc3ccccc3n3cnnc23)CC1 | inactive: 73%
O=C(CCn1nc(-c2ccccc2)c2ccccc2c1=O)Nc1ccccc1 | inactive: 69%
Cc1ccc(-n2nc(CO)c(C(=O)NCc3ccccn3)n2)cc1 | inactive: 89%
Cc1ccc2nc(N(CCCN(C)C)C(=O)c3ccco3)sc2c1 | inactive: 82%
O=C1Nc2ccccc2Oc2cc(Oc3cccc(Cl)c3)ccc21 | inactive: 46%
Cc1cc(C)c(S(=O)(=O)N2CCC(n3c(C(F)(F)F)nc4cccnc43)CC2)c(C)c1 | inactive: 79%

Structure (SMILES) | survival
Cc1nc2nc(SCC(=O)N(C)Cc3ccccc3)nn2c(C)c1Cc1ccccc1Cl | inactive: 60%
Cc1nnc(N2CCCC(C(=O)NCc3ccccc3)C2)c2nn(-c3ccccc3)c(C)c12 (stereo not drawn) | inactive: 90%
CCCCN(C)CCNC(=O)C1CCCN(S(=O)(=O)c2cccc3nsnc23)C1 (stereo not drawn) | inactive: 96%
Cc1c(Cl)cccc1-c1ccc(CNCCCSc2nnnn2C)o1 | inactive: 64%
CCc1ccc(S(=O)(=O)c2cn(C)c3cc(N4CCOCC4)c(F)cc3c2=O)cc1 | inactive: 90%
CCOC(=O)c1cc(-c2ccccc2)n(CCC(=O)NCc2ccccc2Cl)c1C | inactive: 83%
COC(=O)c1sc2cccc(F)c2c1S(=O)(=O)N1CCN(c2cccc(OC)c2)CC1 | inactive: 85%
COc1ccc(Nc2nc3ccccc3nc2NS(=O)(=O)c2ccc(C)cc2)c(OC)c1 | inactive: 63%
O=C(COc1ccccc1F)OCc1cc(=O)n2nc(C3CCCCC3)sc2n1 | inactive: 92%
COc1cccc2cc(S(=O)(=O)c3ccc(F)c(C)c3)c(=O)oc12 | inactive: 90%
Cc1nn(-c2ccccc2)c2nc(C3CC3)cc(C(=O)Nc3ccc(F)cc3)c12 | inactive: 105%
C=CCN1C(=O)C(=O)/C(=C(\O)c2ccccc2)C1c1ccccc1 (stereo not drawn) | inactive: 115%
O=C(CCn1cnc2onc(-c3ccc(F)cc3)c2c1=O)Nc1ccc(F)c(Cl)c1 | inactive: 94%
CCc1c(C)sc2c1CCN(Cc1ccccc1)C2c1ccccc1 (stereo not drawn) | inactive: 85%
O=C(Nc1ccc(OCc2cc(=O)n3c4c(sc3n2)CCCC4)cc1)c1cccc(F)c1 | inactive: 65%
Cc1ccc(NC(=O)CN(C)S(=O)(=O)c2ccc3c(c2)n(C)c(=O)c(=O)n3C)cc1F | inactive: 90%
Cc1cn2c(=O)cc(COc3cccc(NC(=O)c4ccc(C(C)(C)C)cc4)c3)nc2s1 | inactive: 62%
CCOC(=O)C1CCN(CC(=O)Nc2cc(C)c3c(=O)oc4ccccc4c3n2)CC1 | inactive: 128%
